Results taken from PubChem BioAssay (NCATS).
Several values for one entry are separate records, joined by “and”; a condition that tells them apart may be missing. Identical values can stand only once. This is one part of the list. Shown are side measurements of this screen, not its main read-out; they come without a call. For some of these results: The list favours compounds with an active or inconclusive main result. Potencies come from curve fits of mixed quality, noted in brackets.

Tests used:
[1] = qHTS drug screen for cell cycle checkpoint inhibitors in PARPi-resistant BRCA-mutant ovarian cancer cell lines. (AID 1963452); details: PEO1/OlaR viability, CellTiter-Glo luminescence, 96 h
Method in brief: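 PEO1, PEO4 and PEO1/OlaR ovarian cancer cells, 600 per well, exposed 96 h at 37C to a dilution series. Viability read by CellTiter-Glo luminescence, normalized to DMSO and empty wells; activity summarized as Z-AUC.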

[2] = qHTS for identification of novel therapeutic agents for treatment of microphthalmiaassociated transcription factor (MiT) renal cell carcinoma (RCC) (AID 1963991); details: TFE3-RCC viability, CellTiter-Glo, 48 h
Method in brief: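 UOK109/UOK124/UOK145 (TFE3 fusions, three partners); 500 cells/well; MIPE v4.0, 1912 cpds, 11 conc.; 48 h, 37 C; CellTiter-Glo, 15 min RT; lum. Norm.: DMSO 100%, empty 0%.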

[3] = measured here: PEO1 parental viability
Tags tell the direction and shape of the fitted curve.

SMILES: N#Cc1c(N)nc(N)nc1N[C@H](c1nc2c(F)ccc(Cl)c2c(=O)n1-c1cccnc1)C1CC1
- AC50 [1, 3]: 9.77 µM [falling, partial curve]
- AC50 ([1]; measured here: PEO4 viability): 8.71 µM [falling, partial curve]

SMILES: Cc1ccc(C(=O)OCc2ccc([C@@H](CN)C(=O)Nc3ccc4cnccc4c3)cc2)c(C)c1
- AC50 [1, 3]: 9.52 µM [falling, partial curve, poor fit]
- AC50 ([1]; measured here: PEO4 viability): 6.01 µM [falling, partial curve]

SMILES: Cn1ncc(Cl)c1-c1cc(C(=O)NC(CN)Cc2ccc(F)c(F)c2)oc1Cl (stereo unspecified)
- AC50 [1, 3]: 19.5 µM [falling, partial curve]
- AC50 ([1]; measured here: PEO4 viability): 19.5 µM [falling, single point]

SMILES: CCCCC(=O)OCC(=O)[C@]1(O)Cc2c(O)c3c(c(O)c2[C@@H](O[C@H]2C[C@H](NC(=O)C(F)(F)F)[C@H](O)[C@H](C)O2)C1)C(=O)c1c(OC)cccc1C3=O
- AC50 [1, 3]: 0.347 µM [falling, full curve]
- AC50 ([1]; measured here: PEO4 viability): 2.19 µM [falling, full curve]

SMILES: Cc1cc(C)c(CNC(=O)c2cc(-c3ccc(N4CCN(C)CC4)nc3)cc3c2c(C)cn3C(C)C)c(=O)[nH]1
- AC50 [1, 3]: 15.5 µM [falling, single point] and 27.5 µM [falling, partial curve, poor fit]
- AC50 ([1]; measured here: PEO4 viability): 12.3 µM [falling, partial curve, poor fit] and 24.5 µM [falling, single point]

SMILES: C=C1C[C@@H]2CC[C@@]34C[C@H]5O[C@H]6[C@@H](O3)[C@H]3O[C@H](CC[C@@H]3O[C@H]6[C@H]5O4)CC(=O)C[C@@H]3[C@@H](OC)[C@@H](C[C@H](O)CN)O[C@H]3C[C@H]3O[C@@H](CC[C@@H]1O2)C[C@@H](C)C3=C
- AC50 [1, 3]: 0.0018 µM [falling, full curve]
- AC50 ([1]; measured here: PEO4 viability): 0.0018 µM [falling, full curve]

SMILES: Cn1ncc(Cl)c1-c1cc(C(=O)N[C@H](CN)Cc2cccc(F)c2)sc1Cl
- AC50 [1, 3]: 13.8 µM [falling, partial curve]
- AC50 ([1]; measured here: PEO4 viability): 17.4 µM [falling, single point]

SMILES: CC(C)(O)CNc1nc(Nc2ccnc(C(F)(F)F)c2)nc(-c2cccc(C(F)(F)F)n2)n1
- AC50 [1, 3]: 12.3 µM [falling, single point]
- AC50 ([1]; measured here: PEO4 viability): 17.4 µM [falling, partial curve]

SMILES: CC1(C)CCC2(CC1)N[C@@H](C(=O)N[C@@H]1CC[C@@H](C(N)=O)OC1)[C@H](c1ccnc(Cl)c1F)[C@]21C(=O)Nc2cc(Cl)ccc21
- AC50 [1, 3]: 13.3 µM [falling, partial curve]
- AC50 ([1]; measured here: PEO4 viability): 21.1 µM [falling, single point]

SMILES: COc1cc(Nc2cnc(C#N)c(O[C@H](C)CN(C)C)n2)ncc1-c1cnn(C)c1
- AC50 [1, 3]: 2.75 µM [falling, full curve]
- AC50 ([1]; measured here: PEO4 viability): 2.19 µM [falling, full curve]

SMILES: Cc1ncc(NC(=O)c2cccc(C(F)(F)F)c2)cc1-c1cnc(OC2CCOCC2)c(N2CCOCC2)c1
- AC50 [1, 3]: 6.92 µM [falling, partial curve]
- AC50 ([1]; measured here: PEO4 viability): 12.3 µM [falling, partial curve]

SMILES: O=C(Nc1cccnn1)N1CCC(=Cc2cccc(Oc3ccc(C(F)(F)F)cn3)c2)CC1
- AC50 [1, 3]: 1.95 µM [falling, partial curve, poor fit]
- AC50 ([1]; measured here: PEO4 viability): 27.5 µM [falling, partial curve, poor fit]

SMILES: CCC(=O)Nc1cccc(Oc2nc(Nc3ccc(N4CCN(C)CC4)cc3OC)ncc2Cl)c1
- AC50 [1, 3]: 17.4 µM [falling, single point]
- AC50 ([1]; measured here: PEO4 viability): 15.5 µM [falling, partial curve]

SMILES: Nc1ccn([C@@H]2O[C@H](CO)[C@@H](O)C2(F)F)c(=O)n1
- AC50 [1, 3]: 0.0098 µM [falling, full curve]
- AC50 ([1]; measured here: PEO4 viability): 1.1 µM [falling, full curve]

SMILES: O=C1Nc2nc(-c3c(O)cccc3OCC3CC3)cc([C@@H]3CCCNC3)c2CO1
- AC50 [1, 3]: 15.5 µM [falling, single point]
- AC50 ([1]; measured here: PEO4 viability): 15.5 µM [falling, single point]

SMILES: COc1ccc(N2C(=O)N(c3c(C)cccc3Cl)Cc3cnc(Nc4ccc(C5CCN(C)CC5)cc4OC)nc32)nc1
- AC50 [1, 3]: 2.75 µM [falling, partial curve, poor fit]
- AC50 ([1]; measured here: PEO4 viability): 7.76 µM [falling, partial curve]

SMILES: CC(=O)Nc1cc(Oc2ccc3c(nc(Nc4ccc(F)cc4F)n3C)c2C)ccn1
- AC50 [1, 3]: 21.9 µM [falling, single point]
- AC50 ([1]; measured here: PEO4 viability): 0.309 µM [falling, full curve]

SMILES: Cc1sc2c(c1C)C(c1ccc(Cl)cc1)=N[C@@H](CC(=O)Nc1ccc(OCCOCCOCCOCCNc3cccc4c3C(=O)N(C3CCC(=O)NC3=O)C4=O)cc1)c1nnc(C)n1-2 (stereo partly specified)
- AC50 [1, 3]: 0.0219 µM [falling, full curve]
- AC50 ([1]; measured here: PEO4 viability): 0.0436 µM [falling, full curve]

SMILES: CC(=O)O/N=C1/C(c2c(O)[nH]c3cc(Br)ccc23)=Nc2ccccc21
- AC50 [1, 3]: 15.5 µM [falling, partial curve]
- AC50 ([1]; measured here: PEO4 viability): 15.5 µM [falling, partial curve]

SMILES: CCOC(=N)c1nc2ccc3ncnc(Nc4cc(F)c(F)cc4Cl)c3c2s1
- AC50 [1, 3]: 5.49 µM [falling, partial curve]
- AC50 ([1]; measured here: PEO4 viability): 6.16 µM [falling, partial curve]

SMILES: CNC(=O)CCc1cc(-c2ccc(-c3ccc(C(F)(F)F)cc3)cc2)n(-c2ccc(N3CCNCC3)cc2)n1
- AC50 [1, 3]: 3.47 µM [falling, single point]
- AC50 ([1]; measured here: PEO4 viability): 5.49 µM [falling, single point]

SMILES: Cc1cc(-c2nc3cc(F)ccc3s2)ccc1NC(=O)[C@@H](N)CCCCN
- AC50 [1, 3]: 19.5 µM [falling, single point]
- AC50 ([1]; measured here: PEO4 viability): 6.92 µM [falling, partial curve]

SMILES: O=C(c1ccc(/C=C/c2n[nH]c3ccccc23)cc1)N1CCNCC1
- AC50 [1, 3]: 0.0616 µM [falling, full curve, poor fit]
- AC50 ([1]; measured here: PEO4 viability): 15.5 µM [falling, partial curve, poor fit]

SMILES: COc1cc(-c2cn(C)c(=O)c3cnccc23)c(OC)cc1CN(C)C
- AC50 [1, 3]: 11 µM [falling, partial curve]
- AC50 ([1]; measured here: PEO4 viability): 12.3 µM [falling, partial curve]

SMILES: C[C@@H](Nc1cc(F)cc(F)c1)c1cc(C(=O)N(C)C)cc2c(=O)cc(N3CCOCC3)oc12
- AC50 [1, 3]: 13.8 µM [falling, partial curve, poor fit]
- AC50 ([1]; measured here: PEO4 viability): 12.3 µM [falling, partial curve, poor fit]

SMILES: CC(C)C(=O)OCC(=O)[C@@]12O[C@H](C3CCCCC3)O[C@@H]1C[C@H]1[C@@H]3CCC4=CC(=O)C=C[C@]4(C)[C@H]3[C@@H](O)C[C@@]12C
- AC50 [1, 3]: 13.8 µM [falling, partial curve]
- AC50 ([1]; measured here: PEO4 viability): 21.9 µM [falling, single point]

SMILES: CC(C)(O)C1CCC(Nc2ccc3ncc(-c4cccc(C(F)(F)F)c4)n3n2)CC1 (stereo unspecified)
- AC50 [1, 3]: 8.71 µM [falling, partial curve]
- AC50 ([1]; measured here: PEO4 viability): 6.92 µM [falling, partial curve]

SMILES: Cc1ncc(NC(=O)c2ccc(CN3CCN(C)CC3)c(C(F)(F)F)c2)cc1Nc1nccc(-c2cccnc2)n1
- AC50 [1, 3]: 24.5 µM [falling, single point]
- AC50 ([1]; measured here: PEO4 viability): 24.5 µM [falling, single point]

SMILES: CN(C)C/C=C/C(=O)Nc1ccc(C(=O)Nc2cccc(Nc3ncc(Cl)c(-c4c[nH]c5ccccc45)n3)c2)cc1
- AC50 [1, 3]: 0.0245 µM [falling, full curve]
- AC50 ([1]; measured here: PEO4 viability): 0.0436 µM [falling, full curve]

SMILES: C=C1C(=O)O[C@H]2C[C@H](C)C(/C=C/C(C)=O)=CC[C@H]12
- AC50 [1, 3]: 3.89 µM [falling, full curve]
- AC50 ([1]; measured here: PEO4 viability): 4.36 µM [falling, full curve]

SMILES: c1ccc(-c2cc(CCC3CCNCC3)c3ccccc3n2)cc1
- AC50 [1, 3]: 21.9 µM [falling, single point]
- AC50 ([1]; measured here: PEO4 viability): 17.4 µM [falling, single point]

SMILES: O=C(CCCCCCC(=O)N/N=C/c1ccc(N(c2ccccc2)c2ccccc2)cc1)NO
- AC50 [1, 3]: 15.5 µM [falling, single point]
- AC50 ([1]; measured here: PEO4 viability): 13.8 µM [falling, partial curve]

SMILES: NC(=O)c1cccc2c(NC(CN3CCC3)c3ccc(Cl)c(C(F)(F)F)c3)ncnc12 (stereo unspecified)
- AC50 [1, 3]: 11 µM [falling, partial curve]
- AC50 ([1]; measured here: PEO4 viability): 11 µM [falling, partial curve]

SMILES: C[C@H]1CNC(=O)c2cnn3ccc(nc23)N[C@H](C)c2cc(F)ccc2O1
- AC50 [1, 3]: 1.55 µM [falling, full curve]
- AC50 ([1]; measured here: PEO4 viability): 1.55 µM [falling, full curve]

SMILES: NC(=O)/C(=C/n1cnc(-c2cc(C(F)(F)F)cc(C(F)(F)F)c2)n1)c1cncnc1
- AC50 [1, 3]: 0.0616 µM [falling, full curve]
- AC50 ([1]; measured here: PEO4 viability): 0.0977 µM [falling, full curve]

SMILES: c1ccc2c(-c3cnn4cc(-c5ccc(N6CCNCC6)cc5)cnc34)ccnc2c1
- AC50 [1, 3]: 3.09 µM [falling, full curve]
- AC50 ([1]; measured here: PEO4 viability): 3.09 µM [falling, full curve]
- AC50 ([2]; measured here: UOK124 cell viability): 2.64 µM [falling, full curve]
- AC50 ([2]; measured here: UOK145 cell viability): 9.35 µM [falling, partial curve, poor fit]

SMILES: N#Cc1ccc(-c2c(-c3ncn[nH]3)sc(N3CCOCC3)c2C#N)c(F)c1
- AC50 [1, 3]: 5.49 µM [falling, partial curve]
- AC50 ([1]; measured here: PEO4 viability): 4.36 µM [falling, partial curve]
